Results taken from PubChem BioAssay AID1671193 (National Center for Advancing Translational Sciences (NCATS), 2021).
Hit rate of the full screen: of about 150,000 compounds, about 180 (0.12%) were called active. Inconclusive results, whose numbers are uncertain, are shown with a selection of clear calls. Calls come from the whole dose curve; as a rule, active = well fitted cell-killing curve with a large enough effect; inconclusive = small, poorly fitted or top-dose-only effect, or effect the other way; inactive = flat fitted curve, though single readings scatter. Potencies of inconclusive entries are doubtful fits and often do not repeat. Some structures have more than one record in an assay (separate samples or runs), and their calls can disagree.

Experiment: GF-AFC viability counterscreen for inhibitors of alpha-synuclein gene (SNCA) expression; note: nearly all actives have a fitted effect of over 30% in size;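 for activity change, negative = cytotoxicity: 0% = DMSO-treated cells and -100% = medium-only wells without cells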
Details: HEK-293-SNCA-luc viability, GF-AFC fluorescence, 24 h; activity change, negative = cytotoxicity: at 57.1 µM (top of the series) unless noted
Method in brief: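 HEK-293-SNCA-luc cells (1500/well) plated 24 h, then exposed 24 h to a dilution series; GF-AFC added 30 min at 37C, fluorescence 405/540 nm; normalised to medium-only and DMSO wells, Hill fit.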
Potency is the fitted concentration of half-maximal effect; tags give direction and shape of the fitted curve.

Compound	Potency	activity change, negative = cytotoxicity
CC(C)Oc1cccc(-c2cccc(COc3cnc4c(ccn4CC(=O)O)c3)c2)c1	inactive	
COc1ccc(N2CCN(C(=O)CN3C(=O)COc4ccc(S(=O)(=O)N5CCC(C)CC5)cc43)CC2)cc1	inconclusive: 28.2 µM [cytotoxic, partial curve, poor fit]	
CC[C@H](C)[C@H](NC(=O)[C@H]([C@@H](C)CC)N(C)C(C)=O)C(=O)N[C@H](C(=O)N[C@@H](CC(C)C)C(=O)[C@@]1(C)CO1)[C@@H](C)O	inconclusive: 0.0238 µM [cytotoxic, full curve]	
O=C(NCCc1ccccc1)c1ccc(Cn2c(SCc3ccccc3F)nc3cccnc32)cc1	inconclusive: 28.2 µM [cytotoxic, partial curve, poor fit]	
CC[C@H]1CN(S(=O)(=O)c2ccc(OC)cc2)CC[C@H]1CC(=O)Nc1ccccc1	inconclusive: 28.2 µM [cytotoxic, single point]	
CCOC(=O)c1ccccc1NC(=O)Nc1cc2c(cc1N1CCCC1)n(C)c(=O)n2C	inconclusive: 1.26 µM [cytotoxic, full curve, poor fit]	
O=C(NC1CC1)C1CCCCN1Cc1ccc(-c2ccsc2)cc1 (stereo unspecified)	inactive	
CN(C)CC(=O)N1CCC2(C1)CN(C)c1ccc(C(=O)NCc3ccccc3)cc12 (stereo unspecified)	inactive	
O=C(c1ccc2c(c1)OCO2)N1CCc2nc(C3CC3)nc(-c3ccc(Cl)cc3)c2C1	inconclusive: 8.91 µM [cytotoxic, partial curve, poor fit]	
COc1ccc(C(=O)Nc2cc(-c3nc4ccccc4s3)ccc2OC)cc1	inactive	
COc1ccc(F)cc1-c1cccc(C(=O)NCCN[S+](=O)([O-])CCC(F)(F)F)c1	inconclusive: 3.16 µM [cytotoxic, single point]	
Cn1ncc2c(C(=O)NCc3ccc(Cl)cc3)cc(-c3cccnc3)nc21	inactive	
CCOc1ccc(NC(=O)c2ccc3c(c2)N(CC)C2CCCCCN2C3=O)cc1 (stereo unspecified)		inactive: -3.6% [at 12.5 µM]
N#Cc1ccc(CN2CCc3ncc(C(=O)NCCOc4ccccc4)n3CC2)cc1	inactive	
O=C(NCc1ccccc1)c1nc2sccn2c1-c1ccncc1	inactive	
O=C(CSc1cn(CCNC(=O)c2cccc(C(F)(F)F)c2)c2ccccc12)Nc1ccc2c(c1)OCCO2	inconclusive: 39.8 µM [cytotoxic, single point]	
O=C(Nc1nc2ccc(F)cc2s1)c1nc(S(=O)(=O)Cc2ccccc2F)ncc1Cl	inconclusive: 31.6 µM [cytotoxic, single point]	
Cc1cc(C)c(Nc2ccnc(Nc3ccc(C#N)cc3)n2)c(C)c1	inconclusive: 23.8 µM [cytotoxic, single point]	
COc1ccc(-c2cc(-c3ccc([S+](C)(=O)[O-])cc3)cn3cncc23)cc1	inactive	
Cc1ccccc1CC1(CO)CCCN(c2ccc(-c3nccn3C)nn2)C1 (stereo unspecified)	inconclusive: 12.6 µM [cytotoxic, partial curve, poor fit]	
C[n+]1cc2c3c(ccc2c2ccc4cc5c(cc4c21)OCO5)OCO3	active: 12.6 µM	

Compound	Potency	activity change, negative = cytotoxicity
CC(=O)Nc1ccc(Nc2ncnc3c2cnn3C)cc1	inactive	
CCN1CCN(c2nccc(Cl)n2)C(=O)C1	inconclusive: 11.2 µM [rising, single point]	
COc1ccc(-c2nnc(C[C@@H]3C[C@@H](C(C)C)[C@H](CN4CCN(c5ncccn5)CC4)C=C3C)o2)cc1	inconclusive: 8.91 µM [cytotoxic, partial curve, poor fit]	
COCCn1cc(C(=O)NC2CCCc3c2[nH]c2c(Cl)cccc32)c2ccccc2c1=O (stereo unspecified)	inconclusive: 15.8 µM [cytotoxic, partial curve, poor fit]	
Cc1ccc(C(=O)NC2CCN(c3nc4ncccc4o3)CC2)cc1	inconclusive: 15.8 µM [cytotoxic, partial curve, poor fit]	
COc1ccc(Nc2c(-c3cccc(O)c3)nc3cnccn23)cc1	inactive	
Cc1ccccc1NC(=O)N1c2ccccc2CC1c1noc(C2CCOCC2)n1 (stereo unspecified)	inactive	
COc1ccc(CC(=O)N2CCN(c3cc(-c4ccc(OC)cc4)[nH]n3)CC2)cc1	inconclusive: 3.16 µM [cytotoxic, full curve, poor fit]	
Cc1noc(-c2cccc(OC3CN(S(=O)(=O)c4cn(C)cn4)C3)c2)n1	inactive	
Cn1nnnc1SCCNCc1cc(Br)ccc1OCc1ccccc1Cl	inconclusive: 3.98 µM [cytotoxic, full curve, poor fit]	
COc1ccc(C(=O)NC2CCCN(c3ccnc4ccnn34)C2)cc1 (stereo unspecified)	inconclusive: 3.16 µM [cytotoxic, full curve, poor fit]	
O=C(c1ccc2c(c1)N(Cc1cccc(F)c1)C(=O)c1ccccc1S2)N1CCCC1	inconclusive: 39.8 µM [cytotoxic, single point]	
OCCOCCn1cnc(-c2ccccc2)c1-c1ccc(-n2cccn2)cc1	inconclusive: 1.12 µM [cytotoxic, full curve, poor fit]	
Nc1ccn([C@@H]2O[C@H](CO)[C@@H](O)C2(F)F)c(=O)n1	inconclusive: 0.0267 µM [cytotoxic, full curve, poor fit]	
COc1ccc(CNC(=O)c2ccc3c(c2)N(Cc2c(F)cccc2Cl)C(=O)CS3)cc1	inconclusive: 7.08 µM [cytotoxic, full curve, poor fit]	
CN(C)C(=O)C1CN(C(=O)Nc2cc(F)cc(F)c2)CC12CCOCC2 (stereo unspecified)	inactive	
CCC(C)NC(=O)C1COC2(CCC(C)CC2)N1C(=O)c1cccc(F)c1 (stereo unspecified)	inactive	
Cc1nc(C2CCN(C(=O)[C@@H](N)[C@@H](C)O)CC2)cc(N2CCOCC2)n1	inconclusive: 2.51 µM [cytotoxic, full curve, poor fit]	
COc1cccc(Nc2ncc3nc(-c4ccc(F)cc4)c(=O)n(C)c3n2)c1	inconclusive: 4.47 µM [rising, full curve, poor fit]	
O=C(NCCCN1CCOCC1)c1ccc2c(c1)N(Cc1cccc(Cl)c1)C(=O)c1ccccc1S2	inconclusive: 39.8 µM [cytotoxic, single point]	
